Reference: the supplement of paper PMC12355420
Where a name gives a salt, the structure may show the parent alone. This is one part of the list. Rule as the data show it: active = 0.5 or less and inactive = the rest. Single values are uncertain, as repeats are few or missing.

What was measured:
Settings in all cases: 50 µM; 24 h
[1] = tested on: HeLa VPS33A reporter cells; assay: relative cell viability (CellMask signal) vs DMSO (fraction of DMSO); higher = less cytotoxic;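 also: primary screen of an FDA-approved drug library in HeLa reporter cells in 96-well format, CellMask signal normalized to DMSO-treated wells set as 1, under 0.5 deemed highly cytotoxic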
[2] = tested on: HeLa VPS33A R498W KI + HA-SDC1-FLAG; assay: relative GAG core protein HA-SDC1 amount per cell number vs DMSO (fraction of DMSO); higher = more SDC1 (GAG core protein);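 also: HA-SDC1 level read out by In-Cell Western staining with an anti-HA antibody against the N-terminal tag, screening FDA-approved library drugs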
[3] = tested on: HeLa VPS33A KO + NLuc-VPS33A R498W; assay: relative mutant VPS33A R498W amount (NanoLuc luminescence) vs DMSO (fraction of DMSO); HeLa model of a glycosaminoglycan (GAG) storage disease; KI is knock-in and KO knock-out; SDC1 is syndecan 1; higher = higher mutant VPS33A level;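 also: screen of an FDA-approved drug library, NanoLuc luminescence read after lysing the treated cells, taken as a measure of mutant VPS33A protein stability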

SMILES | relative cell viability [1] | relative GAG core protein HA-SDC1 amount per cell number [2] | relative mutant VPS33A R498W amount [3]
CCN[C@H]1CN(CCCOC)S(=O)(=O)c2sc(S(N)(=O)=O)cc21 [Brinzolamide] | 1.06 | inactive: 0.907 | 1.14
O=C(O)c1cc(-c2ccccc2)nc2ccccc12 [Cinchophen] | 1.07 | inactive: 0.947 | 1.21
OCC(O)CN1CCN(c2ccccc2)CC1 (stereo unspecified) [Dropropizine] | 1.01 | inactive: 0.794 | 1.25
O=C(O)/C=C/c1ccc(Cn2ccnc2)cc1 [Ozagrel HCl] | 0.952 | inactive: 0.89 | 1.49
CC(C)NCC(O)COc1ccc(CC(N)=O)cc1 (racemic) [(R,S)-Atenolol] | 1.02 | inactive: 0.904 | 1.23
CC(C)C(=O)Nc1ccc([N+](=O)[O-])c(C(F)(F)F)c1 [Flutamide] | 0.922 | active: 0.303 | 0.913
Cc1nccn1CC1CCc2c(c3ccccc3n2C)C1=O (stereo unspecified) [Ondansetron HCl] | 0.847 | inactive: 0.848 | 0.959
CCCCCCCCCCCCCCCCCCCCCCO [Docosanol (Abreua)] | 1.13 | inactive: 1.41 | 0.755
COc1ccc(-c2ccc3cc(C(=O)O)ccc3c2)cc1C12CC3CC(CC(C3)C1)C2 [Adapalene] | 1.24 | inactive: 1.07 | 1.08
O[C@H]1[C@H](O)[C@@H](O)[C@H](O)[C@@H](O)[C@H]1O [myo-Inositol] | 0.961 | inactive: 0.908 | 1.35
O=[N+]([O-])c1cn2c(n1)OC[C@@H](OCc1ccc(OC(F)(F)F)cc1)C2 | 1.41 | inactive: 0.95 | 1.36
CNC(=O)c1c(C)oc2cc(Oc3ncnc4cc(OC)c(OC)cc34)ccc12 [Fruquintinib(HMPL-013)] | 1.08 | inactive: 0.975 | 1.29
N[C@@H]1CCCCN(c2c(F)cc3c(=O)c(C(=O)O)cn(C4CC4)c3c2Cl)C1 [Besifloxacin HCl] | 0.969 | inactive: 0.948 | 0.558
C#CCN[C@@H]1CCc2ccccc21 [Rasagiline] | 1.06 | inactive: 0.868 | 1.19
COc1ccc2[nH]c([S+]([O-])Cc3ncc(C)c(OC)c3C)nc2c1 (stereo unspecified) [Omeprazole] | 0.964 | active: 0.482 | 0.994
O=[N+]([O-])c1ccc(O)cc1 [4-Nitrophenol] | 0.966 | inactive: 0.887 | 1.06
Cc1c(OCC(F)(F)F)ccnc1C[S+]([O-])c1nc2ccccc2[nH]1 (stereo unspecified) [Lansoprazole sodium] | 1.42 | inactive: 0.712 | 0.571
O=C(NC[C@H]1CN(c2ccc(N3CCOCC3=O)cc2)C(=O)O1)c1ccc(Cl)s1 [Rivaroxaban] | 1.07 | inactive: 1.04 | 0.953
CC(C)(OCc1nn(Cc2ccccc2)c2ccccc12)C(=O)O [Bindarit] | 0.95 | inactive: 0.88 | 1.45

SMILES | relative cell viability [1] | relative GAG core protein HA-SDC1 amount per cell number [2] | relative mutant VPS33A R498W amount [3]
O=C(O)/C=C/c1ccc(Cn2ccnc2)cc1 [Ozagrel] | 1.03 | inactive: 1.07 | 0.996
O=C(NCCO[N+](=O)[O-])c1cccnc1 [Nicorandil] | 0.959 | inactive: 0.751 | 1.13
CC(C)c1nc(CN(C)C(=O)N[C@H](C(=O)N[C@@H](Cc2ccccc2)C[C@H](O)[C@H](Cc2ccccc2)NC(=O)OCc2cncs2)C(C)C)cs1 [Ritonavir] | 1.36 | inactive: 1.08 | 0.563
COc1cnc(NS(=O)(=O)c2ccc(N)cc2)nc1 [Sulfameter] | 1.14 | inactive: 0.734 | 0.93
CC[C@@]1(O)C(=O)OCc2c1cc1n(c2=O)Cc2cc3cc(O)ccc3nc2-1 [10-Hydroxycamptothecin] | 1.12 | inactive: 0.686 | 0.571
O=c1c(-c2ccc(O)cc2)coc2cc(O)cc(O)c12 [Genistein] | 1.06 | inactive: 0.797 | 1.05
Cc1ccc(-n2[nH]c(C)c(N=Nc3cccc(-c4cccc(C(=O)O)c4)c3O)c2=O)cc1C [Eltrombopag] | 0.842 | active: 0.244 | 0.522
CN1CC(=O)N2[C@H](c3ccc4c(c3)OCO4)c3[nH]c4ccccc4c3C[C@@H]2C1=O [Tadalafil] | 1.16 | inactive: 1.18 | 1.13
CN1CCCN=C1/C=C/c1cccs1 [Pyrantel Pamoate] | 1.04 | inactive: 0.845 | 1.48
C#C[C@]1(O)CC[C@H]2[C@@H]3CCC4=CC(=O)CC[C@@H]4[C@H]3C(=C)C[C@@]21CC [Etonogestrel] | 1.02 | inactive: 0.751 | 1.26
C[C@@H]1C[C@H]2[C@@H]3CCC4=CC(=O)C=C[C@]4(C)[C@@]3(Cl)[C@@H](O)C[C@]2(C)[C@@]1(OC(=O)c1ccco1)C(=O)CCl [Mometasone furoate] | 0.886 | active: 0.473 | 1.89
Cc1ncc(C[n+]2csc(CCO)c2C)c(N)n1 [thiamine] | 1.09 | inactive: 1 | 1.2
OCc1ccccc1 [Benzyl alcohol] | 0.99 | inactive: 0.85 | 1.15
CCN1CCN(c2cc3c(cc2F)c(=O)c(C(=O)O)cn3C2CC2)CC1 [Enrofloxacin] | 1.1 | inactive: 0.802 | 0.883
CC(=O)O[C@H]1C[C@@]2(C)[C@@H](C[C@@H](O)[C@H]3[C@@]4(C)CC[C@@H](O)[C@@H](C)[C@@H]4CC[C@@]32C)/C1=C(\CCC=C(C)C)C(=O)O [Fusidic Acid (sodium salt)] | 1.03 | inactive: 0.799 | 0.426
Nc1ccn([C@@H]2O[C@H](CO)[C@@H](O)C2(F)F)c(=O)n1 [Gemcitabine] | 1.19 | inactive: 0.977 | 0.562
Cc1nc(C(=O)NCC(=O)O)c(O)c2ccc(Oc3ccccc3)cc12 | 1.03 | inactive: 1.08 | 0.961
Cn1c(=O)cc(N2CCC[C@@H](N)C2)n(Cc2cc(F)ccc2C#N)c1=O [Trelagliptin] | 1.21 | inactive: 1.09 | 1.33
Cc1onc(-c2ccccc2)c1C(=O)N[C@@H]1C(=O)N2[C@@H]1SC(C)(C)[C@@H]2C(=O)O [Oxacillin sodium monohydrate] | 0.988 | inactive: 0.99 | 1.01

SMILES | relative cell viability [1] | relative GAG core protein HA-SDC1 amount per cell number [2] | relative mutant VPS33A R498W amount [3]
COc1cc2ncnc(Nc3ccc(F)c(Cl)c3)c2cc1OCCCN1CCOCC1 [Gefitinib (ZD1839)] | 1.34 | inactive: 1.6 | 0.278
O[C@@H]1CO[C@H]2[C@@H]1OC[C@@H]2O [Isosorbide] | 0.86 | inactive: 1.13 | 1.21
Cc1nnc(C(=O)NC(C)(C)c2nc(C(=O)NCc3ccc(F)cc3)c(O)c(=O)n2C)o1 [Raltegravir (MK-0518)] | 1.19 | inactive: 1.04 | 0.964
CCN(Cc1ccncc1)C(=O)C(CO)c1ccccc1 (stereo unspecified) [Tropicamide] | 1.02 | inactive: 0.713 | 1.21
C=C1CC[C@H](O)C/C1=C/C=C1\CCC[C@]2(C)[C@@H]([C@H](C)/C=C/[C@H](C)C(C)C)CC[C@@H]12 [Vitamin D2 (Ergocalciferol)] | 1.19 | inactive: 0.541 | 0.663
O=C(O)Cc1ccccc1Nc1c(Cl)cccc1Cl [Diclofenac Sodium] | 1.02 | active: 0.428 | 0.443
COc1ccc(-c2cc(=O)c3c(O)cc(O[C@@H]4O[C@H](CO[C@@H]5O[C@@H](C)[C@H](O)[C@@H](O)[C@H]5O)[C@@H](O)[C@H](O)[C@H]4O)cc3o2)cc1O [Diosimin] | 1.1 | inactive: 0.848 | 0.836
CN(C)C(=O)c1cc2cnc(Nc3ccc(N4CCNCC4)cn3)nc2n1C1CCCC1 | 0.513 | active: 0.454 | 1.51
Cc1c(C(=O)Nc2ccc(N3C[C@@H](C)O[C@@H](C)C3)nc2)cccc1-c1ccc(OC(F)(F)F)cc1 [LDE225 (NVP-LDE225,Erismodegib)] | 1.02 | inactive: 0.755 | 0.991
CN(CCOc1ccc(CC2SC(=O)NC2=O)cc1)c1ccccn1 (stereo unspecified) [Rosiglitazone HCl] | 1.16 | inactive: 0.848 | 0.732
CCOC(=O)[C@H](CCc1ccccc1)N[C@@H](C)C(=O)N1C(=O)N(C)C[C@H]1C(=O)O [Imidapril HCl] | 1.08 | inactive: 1.3 | 1.09
O=C(Nc1cnn2ccc(N3CCC[C@@H]3c3cc(F)ccc3F)nc12)N1CC[C@H](O)C1 | 0.98 | inactive: 0.943 | 0.886
CCCCC(=O)N(Cc1ccc(-c2ccccc2-c2nnn[nH]2)cc1)[C@H](C(=O)O)C(C)C [Valsartan] | 1.02 | inactive: 0.855 | 1.77
Oc1cccc(O)c1 [Resorcinol] | 0.945 | inactive: 0.899 | 1.01
C=CC[N+]1([C@H]2C[C@H]3[C@@H]4CC[C@H]5C[C@H](O)[C@@H](N6CCOCC6)C[C@]5(C)[C@H]4CC[C@]3(C)[C@H]2OC(C)=O)CCCC1 [Rocuronium Bromide] | 1.5 | inactive: 0.837 | 1.02
CCCC(=O)OCOC(=O)C1=C(C)NC(C)=C(C(=O)OC)C1c1cccc(Cl)c1Cl (stereo unspecified) [Clevidipine Butyrate] | 1.19 | inactive: 1.07 | 0.98
Cc1cn([C@@H]2C[C@@H](O)[C@H](CO)O2)c(=O)[nH]c1=O [Telbivudine] | 1.08 | inactive: 0.881 | 0.966
CC1=C(CC(=O)O)c2cc(F)ccc2/C1=C\c1ccc([S+](C)[O-])cc1 (stereo unspecified) [Sulindac] | 0.955 | inactive: 0.809 | 1.01
CN(C)CC(c1ccc(O)cc1)C1(O)CCCCC1 (stereo unspecified) [Desvenlafaxine Succinate] | 1.02 | inactive: 0.803 | 1.14
